Data taken from the supplement of paper PMC4967469.
The IC50 comes from the fitted curve, where viability falls to half of the control; fits outside the tested doses are given as limits. The AUC spans the tested range (256-fold, ending at the top dose) of the same fit; the more sensitive the line, the further below 1. For some of these results: An inferred top dose was derived from the fitted curves, not read from the paper.

What was measured:
Assay in all cases: Viability of human cancer cell lines after 72 h of drug (GDSC screen)
17-AAG = compound: C=CCNC1=C2C[C@@H](C)C[C@H](OC)[C@H](O)[C@@H](C)/C=C(\C)[C@H](OC(N)=O)[C@@H](OC)/C=C\C=C(/C)C(=O)NC(=CC1=O)C2=O [17-AAG]; conditions: top dose 1 µM
Method: (§1)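 Human cancer cell lines in 384-well plates, medium with 10% serum, drug for 72 h over a 256-fold dose range (nine 2-fold or five 4-fold steps up to the top dose). Adherent lines were fixed and stained with the nucleic acid dye Syto60, suspension lines read with resazurin; signal relative to control wells, capped at 0 and 100%. One two-parameter sigmoid per drug and line, fitted in a mixed model over all curves with the slope shared within a line.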

CCT018159 = compound: CCc1cc(-c2n[nH]c(C)c2-c2ccc3c(c2)OCCO3)c(O)cc1O [CCT018159]; conditions: top dose 10 µM; top dose inferred
Method: as §1

BIX02189 = compound: CN(C)Cc1cccc(N=C(c2ccccc2)c2c(O)[nH]c3cc(C(=O)N(C)C)ccc23)c1 [BIX02189]; conditions: top dose 20 µM; top dose inferred
Method: as §1

Dimethyloxalylglycine = compound: COC(=O)CNC(=O)C(=O)OC [Dimethyloxalylglycine]; conditions: top dose 4000 µM; top dose inferred
Method: as §1

Doxorubicin = compound: COc1cccc2c1C(=O)c1c(O)c3c(c(O)c1C2=O)C[C@@](O)(C(=O)CO)C[C@@H]3O[C@H]1C[C@H](N)[C@H](O)[C@H](C)O1 [Doxorubicin]; conditions: top dose 1.024 µM
Method: as §1

OSI-027 = compound: COc1cccc2cc(-c3nc([C@H]4CC[C@H](C(=O)O)CC4)n4ncnc(N)c34)[nH]c12 [OSI-027]; conditions: top dose 20 µM
Method: as §1

Vismodegib = compound: CS(=O)(=O)c1ccc(C(=O)Nc2ccc(Cl)c(-c3ccccn3)c2)c(Cl)c1 [Vismodegib]; conditions: top dose 10 µM; top dose inferred
Method: as §1

VX-11e = compound: Cc1cnc(Nc2ccc(F)cc2Cl)nc1-c1c[nH]c(C(=O)N[C@H](CO)c2cccc(Cl)c2)c1 [VX-11e]; conditions: top dose 5.12 µM; top dose inferred
Method: as §1

TG101348 = compound: Cc1cnc(Nc2ccc(OCCN3CCCC3)cc2)nc1Nc1cccc(S(=O)(=O)NC(C)(C)C)c1 [TG101348]; conditions: top dose 10.24 µM
Method: as §1

UNC1215 = compound: O=C(c1ccc(C(=O)N2CCC(N3CCCC3)CC2)c(Nc2ccccc2)c1)N1CCC(N2CCCC2)CC1 [UNC1215]; conditions: top dose 1 µM; top dose inferred
Method: as §1

Row | Cell Line | AUC (17-AAG) | IC50 (17-AAG) | AUC (CCT018159) | IC50 (CCT018159) | AUC (BIX02189) | IC50 (BIX02189) | AUC (Dimethyloxalylglycine) | IC50 (Dimethyloxalylglycine) | AUC (Doxorubicin) | IC50 (Doxorubicin) | AUC (OSI-027) | IC50 (OSI-027) | AUC (Vismodegib) | IC50 (Vismodegib) | AUC (VX-11e) | IC50 (VX-11e) | AUC (TG101348) | IC50 (TG101348) | AUC (UNC1215) | IC50 (UNC1215)
1 | NCI-H1836 (small cell lung carcinoma, suspension) | 0.987 | > 1 µM | 0.985 | > 10 µM | 0.972 | > 20 µM | 0.628 | 584 µM | 0.9 | > 1.02 µM | 0.497 | 1.23 µM | 0.988 | > 10 µM | 0.988 | > 5.12 µM | 0.918 | > 10.2 µM | 0.986 | > 1 µM
2 | KU812 (chronic myeloid leukaemia, suspension) | 0.864 | 0.747 µM | 0.939 | > 10 µM | 0.941 | > 20 µM | 0.191 | 33.3 µM | 0.421 | 0.0397 µM | 0.254 | 0.267 µM | 0.969 | > 10 µM | 0.908 | > 5.12 µM | 0.791 | 4.15 µM | 0.984 | > 1 µM
3 | KP-2 (pancreas, adherent) | 0.392 | 0.0309 µM | 0.986 | > 10 µM | 0.972 | > 20 µM | 0.376 | 111 µM | 0.607 | 0.129 µM | 0.506 | 1.3 µM | 0.986 | > 10 µM | 0.974 | > 5.12 µM | 0.828 | 6.99 µM | 0.984 | > 1 µM
4 | TE-15 (oesophagus, suspension) | 0.61 | 0.13 µM | 0.871 | > 10 µM | 0.851 | 18.4 µM | 0.484 | 224 µM | 0.386 | 0.0298 µM | 0.269 | 0.25 µM | 0.985 | > 10 µM | 0.73 | 1.59 µM | 0.733 | 3.27 µM | 0.963 | > 1 µM
5 | RF-48 (stomach, adherent) | 0.975 | > 1 µM | 0.944 | > 10 µM | 0.797 | 10.8 µM | 0.736 | 1300 µM | 0.392 | 0.0311 µM | 0.233 | 0.187 µM | 0.984 | > 10 µM | 0.858 | 5.04 µM | 0.805 | 5.95 µM | 0.982 | > 1 µM
6 | SU-DHL-5 (B-cell lymphoma, suspension) | 0.971 | > 1 µM | 0.886 | 6.35 µM | 0.939 | > 20 µM | 0.073 | 17 µM | 0.084 | 0.00488 µM | 0.123 | 0.132 µM | 0.954 | > 10 µM | 0.816 | 2 µM | 0.528 | 0.747 µM | 0.993 | > 1 µM
7 | U-118-MG (glioma, adherent) | 0.722 | 0.297 µM | 0.788 | 5.15 µM | 0.947 | > 20 µM | 0.685 | 901 µM | 0.84 | 0.87 µM | 0.799 | 11.4 µM | 0.982 | > 10 µM | 0.985 | > 5.12 µM | 0.985 | > 10.2 µM | 0.984 | > 1 µM
8 | COR-L88 (small cell lung carcinoma, adherent) | 0.907 | > 1 µM | 0.969 | > 10 µM | 0.957 | > 20 µM | 0.518 | 282 µM | 0.922 | > 1.02 µM | 0.656 | 3.69 µM | 0.977 | > 10 µM | 0.986 | > 5.12 µM | 0.831 | 8.29 µM | 0.98 | > 1 µM
9 | CCF-STTG1 (glioma, adherent) | 0.511 | 0.0668 µM | 0.969 | > 10 µM | 0.941 | > 20 µM | 0.873 | 3900 µM | 0.372 | 0.0283 µM | 0.568 | 1.92 µM | 0.988 | > 10 µM | 0.986 | > 5.12 µM | 0.652 | 1.7 µM | 0.969 | > 1 µM
10 | CTV-1 (acute myeloid leukaemia, suspension) | 0.95 | > 1 µM | 0.806 | 3.94 µM | 0.559 | 1.75 µM | 0.605 | 457 µM | 0.3 | 0.0201 µM | 0.685 | 3.66 µM | 0.968 | > 10 µM | 0.962 | > 5.12 µM | 0.614 | 1.23 µM | 0.99 | > 1 µM
11 | EB2 (Burkitt lymphoma, suspension) | 0.99 | > 1 µM | 0.99 | > 10 µM | 0.715 | 4.74 µM | 0.524 | 289 µM | 0.373 |  | 0.084 | < 0.0781 µM | 0.99 | > 10 µM | 0.963 | > 5.12 µM | 0.477 | 0.559 µM | 0.989 | > 1 µM
12 | QIMR-WIL (acute myeloid leukaemia, suspension) | 0.928 | > 1 µM | 0.897 | > 10 µM | 0.866 | 16.9 µM | 0.564 | 371 µM | 0.317 | 0.02 µM | 0.141 | 0.0992 µM | 0.972 | > 10 µM | 0.955 | > 5.12 µM | 0.567 | 0.97 µM | 0.985 | > 1 µM
13 | BICR22 (head and neck, adherent) | 0.518 | 0.0704 µM | 0.928 | > 10 µM | 0.983 | > 20 µM | 0.641 | 654 µM | 0.813 | 0.659 µM | 0.934 | > 20 µM | 0.96 | > 10 µM | 0.971 | > 5.12 µM | 0.9 | > 10.2 µM | 0.98 | > 1 µM
